Reference: the supplement of paper PMC3334620
Over roughly 33,000 sequences, “E-score (-0.5 to 0.5)” has its median near -0.035; the highest 2% begin near 0.35. Some of the results follow.

target: T1, Pdr3 (UniProt P33200); experiment: PBM E-score (8-mer binding enrichment) (E-score (-0.5 to 0.5)); higher = stronger / more preferred TF binding; most listed sequences are background and not binding sites; details: protein concentration: 200 nM; construct: GST-full length
T1 sequence: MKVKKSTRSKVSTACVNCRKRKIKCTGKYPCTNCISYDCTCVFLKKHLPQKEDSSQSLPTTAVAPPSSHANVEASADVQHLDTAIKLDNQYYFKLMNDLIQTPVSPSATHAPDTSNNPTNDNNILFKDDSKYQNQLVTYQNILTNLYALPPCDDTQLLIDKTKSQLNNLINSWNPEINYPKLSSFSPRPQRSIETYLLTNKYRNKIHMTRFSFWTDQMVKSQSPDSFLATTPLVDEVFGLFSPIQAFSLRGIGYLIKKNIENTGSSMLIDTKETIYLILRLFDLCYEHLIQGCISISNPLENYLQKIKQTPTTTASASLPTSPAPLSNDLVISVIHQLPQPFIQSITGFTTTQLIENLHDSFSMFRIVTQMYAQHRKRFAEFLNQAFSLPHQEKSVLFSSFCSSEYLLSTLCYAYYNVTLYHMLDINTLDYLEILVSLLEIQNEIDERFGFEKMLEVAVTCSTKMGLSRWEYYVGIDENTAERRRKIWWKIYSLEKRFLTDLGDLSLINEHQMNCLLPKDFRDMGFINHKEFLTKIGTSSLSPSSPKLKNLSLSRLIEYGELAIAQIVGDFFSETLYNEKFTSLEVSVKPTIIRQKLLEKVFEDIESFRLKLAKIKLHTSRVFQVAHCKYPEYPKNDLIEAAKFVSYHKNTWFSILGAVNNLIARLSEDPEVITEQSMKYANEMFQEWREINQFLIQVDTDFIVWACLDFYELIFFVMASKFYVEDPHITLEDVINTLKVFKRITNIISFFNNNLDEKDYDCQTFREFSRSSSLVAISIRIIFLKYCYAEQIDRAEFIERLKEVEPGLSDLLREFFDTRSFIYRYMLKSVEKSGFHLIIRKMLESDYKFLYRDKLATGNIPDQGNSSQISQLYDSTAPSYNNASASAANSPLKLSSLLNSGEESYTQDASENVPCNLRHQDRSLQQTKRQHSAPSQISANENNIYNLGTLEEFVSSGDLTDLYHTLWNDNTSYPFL
In short: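 Universal all-10-mer Agilent arrays, double-stranded by primer extension on fresh or once-stripped slides, were probed with about 100-200 nM GST-tagged yeast transcription factors made by PURExpress. Fluorescent anti-GST detected bound protein, and masliner normalised the scans. E-scores from the Universal PBM Analysis Suite were given to each ungapped eight-base word pooled with its reverse complement.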

| Sequence | PBM E-score |
| --- | --- |
| ACGGAGTA | 0.297 |
| AGACATTG | -0.16 |
| TACTGAAA | 0.0701 |
| GGCTAAGA | -0.0826 |
| AACCAGTT | 0.033 |
| AGCGCCGG | 0.307 |
| CGTACACC | 0.0312 |
| GCCCCGAC | 0.231 |
| GGTTATGA | -0.146 |
| AAGCTCCC | -0.056 |
| GGTGATCA | -0.222 |
| CAGGCTCA | -0.126 |
| TATTATAA | -0.0981 |
| AGATGTCA | 0.0102 |
| ACGTACAC | -0.13 |
| AAAGGGCT | -0.343 |
| ACGCGCGT | 0.0776 |
| AGCCTCGG | 0.156 |
| ACTAATGC | 0.125 |
| AAGAACTG | -0.101 |
| ACGCCGTC | 0.191 |
| TGTGGGAA | -0.119 |

| Sequence | PBM E-score |
| --- | --- |
| CCGACCTC | 0.129 |
| CTCAGACA | -0.0115 |
| AATCATTG | -0.302 |
| AGCCTGAT | -0.176 |
| GGCGTCGA | 0.178 |
| ATACGCAC | 0.0411 |
| ATCGTCCA | -0.0669 |
| GAGAAGGA | -0.131 |
| CACTATAG | -0.187 |
| GCTACATA | -0.046 |
| CCACGACC | -0.186 |
| AGCTACTC | -0.0578 |
| CACATTAC | 0.0395 |
| AAAATGGG | -0.0238 |
| AGCTCGGC | 0.196 |
| AGCCACTA | -0.168 |
| CGGTCATC | 0.208 |
| GGATTTAC | 0.0693 |
| CCCCACGG | 0.26 |
| GAATCTCA | 0.0058 |
| GAAGGTAA | 0.124 |
| CTCAGATC | 0.11 |

| Sequence | PBM E-score |
| --- | --- |
| ACGTGCGG | 0.0591 |
| CTCTTCTA | -0.154 |
| ATATCCTA | -0.0576 |
| GCTCAATA | 0.0389 |
| CCAGATAC | -0.131 |
| CAGAATAA | -0.0298 |
| AGGCCTAG | -0.24 |
| AGTTCAAA | -0.0039 |
| AACCCTAT | -0.112 |
| GCATTATA | -0.112 |
| ATAAATAG | 0.0815 |
| CTGCAGAC | -0.111 |
| GCTCGGCA | 0.228 |
| CTGAGTAC | -0.153 |
| CCGGCATA | 0.269 |
| CGTCTAAA | -0.07 |
| GGTGCGAC | 0.0293 |
| CAATCTAC | -0.126 |
| CGTGGTTC | 0.179 |
| CACCCGTG | 0.232 |
| AATTCCCC | 0.203 |
| CTTTAGAC | -0.327 |

| Sequence | PBM E-score |
| --- | --- |
| GTCTATTA | -0.055 |
| ACTGCCCC | 0.0699 |
| AAGTTCGC | -0.118 |
| TCAGTAGA | -0.105 |
| AAGTACAT | -0.0113 |
| GGAATGAA | 0.309 |
| TCCTGTCA | -0.0998 |
| CTAGGAAG | -0.214 |
| CCGTCGTA | 0.12 |
| CCTTAGAG | -0.308 |
| CCTATTCA | 0.0245 |
| AACTCCCC | 0.223 |
| TCTACTCA | -0.0894 |
| CCGTAATC | 0.0525 |
| CACTTGGC | 0.013 |
| TTATAAAA | 0.216 |
| GAACTGTC | 0.0611 |
| ACTCGCAG | -0.135 |
| AGGCGATG | 0.0723 |
| CGAACTCG | 0.17 |
